# Results from the supplement of paper PMC9174493.
# The other results are listed elsewhere or left out. Single values of this set are uncertain. Values with irradiation are relative to irradiated vehicle.
# System: A549-Dual
# Assay: NF-kB reporter (SEAP) activity, viability-corrected, relative to vehicle (fold change vs vehicle); higher = more activation of STING-IRF / NF-kB immune response reporter
# Settings: 10 µM; irradiation: 8 Gy/4 fr
# 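Further: viability correction based on the alamar blue assay, with concentrations leaving 10% survival or less dropped.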
row,Structure (SMILES),NF-kB reporter
1,C=CC(=O)Nc1cc(Nc2nccc(-c3cn(C)c4ccccc34)n2)c(OC)cc1N(C)CCN(C)C [Osimertinib (AZD9291)],1.14
2,CC1CC2C3CCC4=CC(=O)C=CC4(C)C3(F)C(O)CC2(C)C1(O)C(=O)COP(=O)([O-])[O-].[Na+].[Na+] (centres undefined) [Dexamethasone Sodium Phosphate],0.649
3,O=C(O)CCCN1CCC(OC(c2ccc(Cl)cc2)c2ccccn2)CC1.O=S(=O)(O)c1ccccc1 (centres undefined) [Bepotastine Besilate],1.12
4,CC(=O)OC(C)C(C)C(=O)OCC12C3CC4(C)C(=CCC5C6(C)CCC(OC7OC(C(=O)[O][Na])C(OC8OC(CO)C(O)C(O)C8O)C(O)C7OC7OCC(O)C(O)C7O)C(C)(CO)C6CCC54C)C1CC(C)(C)C(O3)C2O (centres undefined) [Sodium Aescinate],1.59
5,Nc1nc(CC(=O)Nc2ccc(CCNCC(O)c3ccccc3)cc2)cs1 (centres undefined) [Mirabegron],1.05
6,O=C1OC(OC(=O)c2cccnc2Nc2cccc(C(F)(F)F)c2)c2ccccc21 (centres undefined) [Talniflumate],0.765
7,CN1C(C(=O)Nc2ccccn2)=C(O)c2sccc2S1(=O)=O [Tenoxicam],1.09
8,CCC(=O)NS(=O)(=O)c1ccc(-c2c(-c3ccccc3)noc2C)cc1 [Parecoxib],1.12
9,CNCC(O)C(O)C(O)C(O)CO.Cc1c(Nc2ncccc2C(=O)O)cccc1C(F)(F)F [Flunixin Meglumin],0.924
10,Cc1cncc(CN2CCC(=C3c4ccc(Cl)cc4CCc4cccnc43)CC2)c1.O=C(O)/C=C/C(=O)O [Rupatadine Fumarate],0.48
11,COC(=O)CC(O)(CCCC(C)(C)O)C(=O)OC1C(OC)=CC23CCCN2CCc2cc4c(cc2C13)OCO4 (centres undefined) [Homoharringtonine],1.82
12,CC(C(=O)[O-])c1ccc(CC2CCCC2=O)cc1.[Na+] (centres undefined) [Loxoprofen Sodium],1.07
13,C=C1c2cccc(O)c2C(=O)C2=C(O)C3(O)C(=O)C(C(N)=O)=C(O)C(N(C)C)C3C(O)C12.Cl (centres undefined) [Methacycline HCl],0.471
14,CC1CCC2(C(=O)OC3OC(COC4OC(CO)C(OC5OC(C)C(O)C(O)C5O)C(O)C4O)C(O)C(O)C3O)CCC3(C)C(=CCC4C5(C)CC(O)C(O)C(C)(CO)C5CCC43C)C2C1C (centres undefined) [Asiaticoside],1.35
15,Nc1nc(F)nc2c1ncn2C1OC(CO)C(O)C1O (centres undefined) [Fludarabine],0.941
16,O=NN(CCCl)C(=O)NC1CCCCC1 [Lomustine],0.967
17,O=CC(O)C(O)C(O)C(O)COC1OC(CO)C(O)C(O)C1O (centres undefined) [Melibiose],1.02
18,O.S=c1nc[nH]c2nc[nH]c12 [6-Mercaptopurine (6-MP) Monohydrate],0.854
19,CC(C(=O)O)c1cccc(C(=O)c2ccccc2)c1 (centres undefined) [Ketoprofen],0.942
20,CNC1CCC(c2ccc(Cl)c(Cl)c2)c2ccccc21.Cl (centres undefined) [Sertraline HCl],0.67
21,CC1(C)OC2CC3C4CCC5=CC(=O)CCC5(C)C4(F)C(O)CC3(C)C2(C(=O)CCl)O1 (centres undefined) [Halcinonide],0.909
22,CC(=O)OC12COC1CC(O)C1(C)C(=O)C(O)C3=C(C)C(OC(=O)C(O)C(NC(=O)OC(C)(C)C)c4ccccc4)CC(O)(C(OC(=O)c4ccccc4)C21)C3(C)C (centres undefined) [Docetaxel],1.08
23,CCN(CC)Cc1cc(Nc2ccnc3cc(Cl)ccc23)ccc1O.Cl.Cl [Amodiaquine hydrochloride],0.99
24,Cc1c(N)c(=O)n(-c2ccccc2)n1C [4-Aminoantipyrine],1.04
25,Cn1cnc2c(F)c(Nc3ccc(Br)cc3F)c(C(=O)NOCCO)cc21,1.2
26,CC1(C)C2CCC1(C)C(O)C2 (centres undefined) [Borneol],1.02
27,CC1CC2C3CCC4=CC(=O)C=CC4(C)C3(Cl)C(O)CC2(C)C1(OC(=O)c1ccco1)C(=O)CCl (centres undefined) [Mometasone furoate],0.439
28,CCN(CC)CCCC(C)Nc1ccnc2cc(Cl)ccc12.O=P(O)(O)O.O=P(O)(O)O (centres undefined) [Chloroquine Phosphate],1.31
29,"COc1cc2c(cc1Cc1cccc(Cl)c1F)c(=O)c(C(=O)O)cn2C(CO)C(C)C (centres undefined) [Elvitegravir (GS-9137, JTK-303)]",0.966
